Source: PubChem BioAssay AID652104 (National Center for Advancing Translational Sciences (NCATS), 2013)
Among all 410,000 compounds or so, about 7,200 (1.8%) were called active. The shares of active, inactive and inconclusive entries below differ from those in the screen. The call rests on the fitted dose curve; in most records, active means well fitted activation curve with a large enough effect; inconclusive means small, poorly fitted or top-dose-only effect, or another doubt; inactive means no such curve, though single readings can be large or run the other way. Potencies of inconclusive entries are left out as doubtful fits.

assay: qHTS of TDP-43 Inhibitors; conditions: TDP-43 expressing yeast growth rescue, BacTiter-Glo, 24 h; growth rescue (activation): at 46.1 µM (top of the series); further: nearly all actives have a fitted effect of over 50% in size; on growth rescue (activation): % of control where 0% means no effect
How it was run: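 Cell-based yeast growth screen: TDP-43 expression induced in galactose, inoculum OD600=0.02 after raffinose pregrowth to mid-log. Read-out BacTiter-Glo luminescence at 24 hr, 30 deg C; inhibition of toxicity seen as signal increase.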
Potency means the concentration at half of the fitted maximal effect; tags describe the fitted curve by direction and shape.

| SMILES | growth rescue (activation) | Potency |
| --- | --- | --- |
| CC(=O)O[C@H]1C[C@@H]2OC3C=C(C)CCC3(C)[C@@]1(C)[C@@]21CO1 (stereo partly specified) | inconclusive: -88.7% [activator] | – |
| CC(=O)C1CCC2C3C(N4CC4)CC4=CC(=O)CCC4(C)C3CCC12C (stereo unspecified) | inactive: 11.7% | – |
| c1ccc(-c2ccc(C(c3ccccc3)n3ccnc3)cc2)cc1 (stereo unspecified) | – | active: 6.31 µM |
| Cc1cccc(-n2c(-c3cccs3)nc3ccccc3c2=O)c1 | – | active: 20 µM |
| CCn1c(CN2CCN(C)CC2)nc2ccccc21 | inactive: 21.2% [at 9.22 µM] | – |
| C[C@]12C[C@@H](O)[C@H](O)CC1=CCC1C2CC[C@]2(C)C(=O)CCC12 (stereo partly specified) | inactive: 11.3% | – |
| CCCCOc1nc2ccccc2c(=O)n1-c1ccccc1 | – | inconclusive [activator, partial curve] |
| CCOC(C(=O)OCCCN(CC)CC)(c1ccccc1)c1ccccc1 | inactive: 7.46% | – |
| CC(c1ccccc1)(c1ccccc1)c1ccncc1 | – | inconclusive [activator, single point] |
| Cc1ccc(C)c(CN2C(=O)c3ccccc3Sc3ccc(C(=O)N4CCC5(CC4)OCCO5)cc32)c1 | – | inconclusive [activator, partial curve] |
| O=C(c1ccc2c(c1)N(Cc1c(F)cccc1Cl)C(=O)c1ccccc1S2)N1CCC2(CC1)OCCO2 | – | inconclusive [activator, partial curve] |
| Cc1cccc(N2CCN(Cc3ccc4c(c3)OCO4)CC2)c1C | inactive: -19.9% | – |
| O=C(OCc1ccccc1)N1CCC2CC1c1cc(N3Cc4ccccc4-n4nncc4C3)ccc12 (stereo unspecified) | – | inconclusive [activator, partial curve, poor fit] |
| O=P1(NCc2ccco2)COc2ccccc2OC1 | – | inconclusive [activator, full curve] |
| CCn1cc(C(=O)NCc2ccccc2)c2ccccc21 | – | inconclusive [activator, partial curve] |
| C[C@]12CC[C@H](O)CC1=CCC1C2CC[C@]2(C)C(=O)[C@H](Br)CC12 (stereo partly specified) | – | inconclusive [activator, single point] |
| O=C1c2ccccc2-c2cc3ccccc3cc21 | – | inconclusive [activator, partial curve] |
| C[C@]12CC[C@H]3[C@@H](CCC4=CC(=O)CC[C@@]43C)[C@@H]1CC[C@@H]2C(=O)CO | – | inconclusive [activator, partial curve] |
| CCOC(=O)CNC(=O)N1Cc2ccccc2-n2nncc2C1 | inactive: 0% | – |
| COC(=O)C1=C(c2ccccc2OCc2ccccc2)C[C@@H]2CC[C@H]1N2C(=O)NCc1ccc(Cl)cc1 | – | inconclusive [activator, partial curve] |
| Cc1cccc(CN2C(=O)CN=C(c3ccccc3Cl)c3cc(Cl)ccc32)c1 | – | inconclusive [activator, partial curve] |
| COC(=O)C1=C(c2ccc(F)cc2F)C[C@@H]2CC[C@H]1N2C(=O)N1CCCC1 | inactive: 8.89% | – |

| SMILES | growth rescue (activation) | Potency |
| --- | --- | --- |
| COC1C(C)OC(OC2CC(C)(O)Cc3cc4c(c(O)c32)C(=O)c2c(O)cc3c(c2C4=O)OC2OC3(C)C(O)C(N(C)C)C2O)C(OC)C1(C)OC (stereo unspecified) | – | active: 22.4 µM |
| CCCCCCC(Cl)(Cn1ccnc1)c1ccccc1 (stereo unspecified) | – | inconclusive [activator, single point] |
| CCCSc1ncc(Cl)c(C(=O)N(Cc2ccccc2)c2ccc(OC)cc2)n1 | – | inconclusive [activator, full curve] |
| O=C(NCCN1CCOCC1)c1ccc(Cl)nc1Cl | – | inconclusive [activator, single point] |
| COc1ccc(NC(=S)N2Cc3ccccc3-n3nncc3C2)c(OC)c1 | – | inconclusive [activator, partial curve, poor fit] |
| COCCNC(=O)c1c(N)n(CCC(C)C)c2nc3ccccc3nc12 | inactive: 0% | – |
| CCOC(=O)[C@]12Cc3cc(Cl)ccc3[C@H]1N(C)C(=O)c1cc(OC)ccc12 | – | active: 22.4 µM |
| COc1cccc(C2(O)CCSCC2CN(C)C)c1 (stereo unspecified) | inactive: 10.1% | – |
| COC(=O)c1ccc(NC2=C(Cl)C(=O)OC2OC(=O)c2ccccc2)cc1 (stereo unspecified) | – | active: 22.4 µM |
| Cc1ccc2scc(N3CCN(C)CC3)c(=O)c2c1 | inactive: -22.1% | – |
| Cc1ccc2nc(C)n(-c3ccc(F)cc3)c(=O)c2c1 | – | inconclusive [activator, partial curve] |
| Nc1ccc(CC(N)c2csc(Nc3ncccn3)n2)cc1 (stereo unspecified) | – | inconclusive [activator, full curve, poor fit] |
| CCn1nc(-c2ccccc2)nc2c(=O)n(C)c(=O)nc1-2 | inconclusive: -93.2% [activator] | – |
| COc1ccc2c(c1OC)C(=O)O[C@@H]2[C@H]1c2cc3c(cc2CCN1C)OCO3 | – | inconclusive [activator, partial curve, poor fit] |
| CC(C)(C)c1cc(C=C(C#N)C#N)cc(C(C)(C)C)c1O | – | inconclusive [activator, full curve, poor fit] |
| CC(=O)Nc1cc(-c2cccc(CO)c2)cn2c(-c3cccc(C(F)(F)F)c3)cnc12 | – | inconclusive [activator, full curve, poor fit] |
| Cc1ccc(CSc2ncccc2C(=O)O)cc1 | – | inconclusive [activator, single point] |
| COc1cc(C(=O)NCCSc2c(-c3ccccc3)[nH]c3ccccc23)cc(OC)c1OC | – | inconclusive [activator, partial curve] |
| CN(C(=O)Oc1ccc(Cl)c2cccnc12)c1ccccc1 | – | inconclusive [activator, single point] |
| NC(Cc1ccc(O)cc1)C(=O)NN=Cc1ccc(N(CCCl)CCCl)cc1 (stereo unspecified) | inactive: -0.245% | – |
| COc1cccc(Oc2coc3cc(OC(=O)N(C)C)ccc3c2=O)c1 | – | inconclusive [activator, single point] |
| Cc1ccc(-n2c(/C=C/c3cccc(C(F)(F)F)c3)nc3ccccc3c2=O)cc1 | – | inconclusive [activator, partial curve, poor fit] |

| SMILES | growth rescue (activation) | Potency |
| --- | --- | --- |
| COc1ccc(C)cc1N(CC(=O)N1CCC(C)CC1)S(=O)(=O)c1ccc(C)cc1 | – | inconclusive [activator, full curve, poor fit] |
| Cc1cccc(-n2c(/C=C/c3cccc4ccccc34)nc3ccccc3c2=O)c1 | – | active: 35.5 µM |
| CCSc1nnc(NC(=O)c2cccn(Cc3ccc(Cl)cc3)c2=O)s1 | – | inconclusive [activator, full curve, poor fit] |
| CCC1(C2=NCCN2)Cc2ccccc2O1 (stereo unspecified) | – | inconclusive [activator, full curve, poor fit] |
| COC(=O)C1=C(c2ccc(-c3ccccc3)c(F)c2)C[C@@H]2CC[C@H]1N2C(=O)NCCOc1ccc(OC)cc1 | – | inconclusive [activator, partial curve] |
| COC(=O)C1=C(c2ccc(Cl)c(C(F)(F)F)c2)C[C@@H]2CC[C@H]1N2C(=O)NCCOc1ccccc1Cl | – | inconclusive [activator, single point] |
| Cc1ccc(S(=O)(=O)N2Cc3cc(-c4ccccc4)ccc3-n3nncc3C2)cc1 | – | inconclusive [activator, partial curve, poor fit] |
| S=C(NCCc1ccccc1)N1Cc2cc(Br)ccc2-n2nncc2C1 | – | active: 22.4 µM |
| Cc1cc(C)c(C(=O)CN2CCOCC2)c(C)c1 | – | inconclusive [activator, single point] |
| O=Cc1c(NCc2ccc(Cl)cc2)c2ccccc2[nH]c1=O | – | inconclusive [activator, single point] |
| COC(=O)C1=C(c2ccc(F)cc2F)C[C@@H]2CC[C@H]1N2C(=O)NC1Cc2ccccc2C1 | – | inconclusive [activator, single point] |
| COC(=O)C1=C(c2ccc(F)cc2OCc2ccccc2)C[C@@H]2CC[C@H]1N2C(=O)NCCCc1ccccc1 | – | inconclusive [activator, partial curve] |
| O=P(Nc1cccnc1)(Oc1ccccc1Cl)Oc1ccccc1Cl | – | inconclusive [activator, single point] |
| COC(=O)C1=C(c2ccc(-c3ccccc3)c(F)c2)C[C@@H]2CC[C@H]1N2C(=O)NCc1ccco1 | – | inconclusive [activator, single point] |
| O=C(COC(=O)Cc1ccccc1)Nc1ncc(Cl)cc1Cl | – | inconclusive [activator, single point] |
| COc1ccc(C2C3C=CC(C3)C2C(=O)O)cc1 (stereo unspecified) | – | inconclusive [activator, single point] |
| CCCCCCC(C)(C)c1ccc([C@@H]2C[C@H](O)CC[C@H]2CCCO)c(O)c1 | – | inconclusive [activator, partial curve, poor fit] |
| CCC12CN3CC(CC)(CN(C1)C3c1cccnc1)C2=O (stereo unspecified) | inactive: 6.12% | – |
| CC1CCCN(c2ccc(C(=O)N3CCC4(CC3)OCCO4)cc2[N+](=O)[O-])C1 (stereo unspecified) | – | inconclusive [activator, single point] |
| C[C@@H]1CCC2[C@@H](C)C(=O)O[C@@H]3OC4(C)CCC1[C@@]23OO4 (stereo partly specified) | – | active: 7.94 µM |
| C[C@H]1CCC[C@@H](O)CCC/C=C/c2cc(O)cc(O)c2C(=O)O1 | inactive: -1.47% | – |
| COC(=O)C1=C(c2ccc3ccccc3c2)C[C@@H]2CC[C@H]1N2C(=O)NCc1ccc(F)cc1 | – | inconclusive [activator, single point] |
